The test system of one assay is K562 cells. As to the kind of experiment: Anti-proliferative activity against K562 cells. As to conditions: Homo sapiens. Format: cell-based.
A further assay deals with Jurkat cells. As to the kind of experiment: MTT cell growth/viability assay in Jurkat cells. Format: cell-based. Conditions: activated Jurkat cells. As to the method: Cell growth assay (MTT) with photo-NSAIDs and NSAIDs. Jurkat cells were seeded in a 96-well flatbottomed cell culture plate (Falcon) in RPMI with 10% FBS and 1% penicillin/streptomycin at a density of 1×10^5 cells/mL and maintained for 24 hours at 37° C. and 5% CO2 atmosphere. Cells were treated with photo-NSAIDs or NSAIDs in triplicate at different doses and incubated for 24 hours at 37° C. MTT solution (10 μL, 5 mg/mL) was added to each well and gently mixed. The cells were incubated for 4 hours at 37° C., followed by addition of 0.1 mL isopropanol with 0.04 N HCl to each well. The resulting mixture was mixed thoroughly by repeated pipetting. The absorbance was measured within 1 hour on a multi-mode microplate reader with a wavelength of 620 nm.

Another assay has as its system histone H2A. As to the kind of experiment: Cellular thermal shift assay probed for histone H2A in Jurkat cells. It counts as cell-based. On the procedure: Cell thermal shift assay (CETSA) with photo-NSAIDs and NSAIDs. Jurkat cells in 15 mL of FBSfree RPMI at a density of 2.5×10^6 cells/mL were incubated with 50 μM of tag 7, photo-NSAIDs or NSAIDs for 2 hours in a 5% CO2 atmosphere at 37° C. The cell suspension was then collected and centrifuged for 3 minutes at 300×g and the culture medium was aspirated. The cell pellets were re-suspended and washed with PBS (2×15 mL) by centrifugation. PBS (1 mL) supplemented with EDTA-free protease inhibitors (1×) was added to each tube, and the resulting cell suspension was equally distributed into eight different 0.2 mL PCR tubes. The PCR tubes were heated over a temperature gradient (37-62° C.) for 20 minutes in a 96-well thermal cycler, followed by repeated freeze-thaw cycles (5×). The PCR tubes containing the resulting cell lysates were centrifuged at 20,000×g for 30 minutes at 4° C. to pellet cell debris together with precipitated and aggregated proteins. Each supernatant with the soluble protein fraction was transferred carefully to a new tube and analyzed by Western blot. The Western blot bands were quantified by ImageJ, and the data were fitted to obtain apparent Tagg values using the Boltzmann Sigmoid equation within GraphPad Prism.

For assay [1], the target named is Histone H2B type 1-K (HIST1H2BK) (Homo sapiens, UniProt O60814). As to the kind of experiment: SIM-PAL conjugated peptide PSM count, histone H2B type 1-K. Conditions: aggregate across Jurkat and K562 cells.
Another assay deals with Nucleophosmin (NPM1) (Homo sapiens, UniProt P06748). As to the kind of experiment: SIM-PAL conjugated peptide PSM count, nucleophosmin. Conditions: aggregate across Jurkat and K562 cells.
Chain of Nucleophosmin (NPM1) (P06748 whole entry): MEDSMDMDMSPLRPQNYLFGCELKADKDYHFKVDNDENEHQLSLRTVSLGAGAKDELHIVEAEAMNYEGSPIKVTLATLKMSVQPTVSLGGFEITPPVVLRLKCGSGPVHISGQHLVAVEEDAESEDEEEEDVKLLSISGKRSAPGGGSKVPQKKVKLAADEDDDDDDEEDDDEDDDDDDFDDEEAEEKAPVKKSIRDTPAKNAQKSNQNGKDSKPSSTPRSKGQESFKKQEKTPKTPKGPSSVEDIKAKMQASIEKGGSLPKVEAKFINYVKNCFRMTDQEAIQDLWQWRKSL
The next assay addresses Histone H4 (HIST1H4A) (Homo sapiens, UniProt P62805). Nature of the assay: SIM-PAL conjugated peptide PSM count, histone H4. As to conditions: aggregate across Jurkat and K562 cells.
In assay [2] the target is Actin, cytoplasmic 1 (ACTB) (Homo sapiens, UniProt P60709). Nature of the assay: SIM-PAL conjugated peptide PSM count, actin cytoplasmic 1. Conditions: aggregate across Jurkat and K562 cells.
The next assay addresses Cathepsin D (CTSD) (Homo sapiens, UniProt P07339). As to the kind of experiment: SIM-PAL conjugated peptide PSM count, cathepsin D. Conditions: aggregate across Jurkat and K562 cells.
For assay [3], the target named is X-ray repair cross-complementing 6 (XRCC6) (Homo sapiens, UniProt P12956). Nature of the assay: SIM-PAL conjugated peptide PSM count, XRCC6. As to conditions: aggregate across Jurkat and K562 cells.
Chain of X-ray repair cross-complementing 6 (XRCC6) (P12956 2-609 limits assumed): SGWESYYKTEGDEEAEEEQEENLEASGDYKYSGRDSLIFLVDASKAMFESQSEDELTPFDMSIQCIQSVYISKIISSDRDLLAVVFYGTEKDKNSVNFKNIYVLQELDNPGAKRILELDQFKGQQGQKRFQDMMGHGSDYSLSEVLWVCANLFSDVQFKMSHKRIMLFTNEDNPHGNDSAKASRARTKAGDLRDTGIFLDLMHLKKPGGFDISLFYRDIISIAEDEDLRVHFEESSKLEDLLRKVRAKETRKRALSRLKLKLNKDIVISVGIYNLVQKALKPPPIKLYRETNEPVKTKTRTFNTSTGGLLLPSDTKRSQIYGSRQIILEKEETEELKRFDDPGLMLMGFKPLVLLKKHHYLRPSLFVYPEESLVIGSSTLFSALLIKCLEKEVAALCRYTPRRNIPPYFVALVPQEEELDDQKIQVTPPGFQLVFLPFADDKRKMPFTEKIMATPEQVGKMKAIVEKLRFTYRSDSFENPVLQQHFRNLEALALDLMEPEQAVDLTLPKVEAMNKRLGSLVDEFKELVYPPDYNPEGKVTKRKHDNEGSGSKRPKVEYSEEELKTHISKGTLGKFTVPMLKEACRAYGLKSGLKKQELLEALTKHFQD
Chain of X-ray repair cross-complementing 6 (XRCC6) (P13010 2-732 partner limits assumed): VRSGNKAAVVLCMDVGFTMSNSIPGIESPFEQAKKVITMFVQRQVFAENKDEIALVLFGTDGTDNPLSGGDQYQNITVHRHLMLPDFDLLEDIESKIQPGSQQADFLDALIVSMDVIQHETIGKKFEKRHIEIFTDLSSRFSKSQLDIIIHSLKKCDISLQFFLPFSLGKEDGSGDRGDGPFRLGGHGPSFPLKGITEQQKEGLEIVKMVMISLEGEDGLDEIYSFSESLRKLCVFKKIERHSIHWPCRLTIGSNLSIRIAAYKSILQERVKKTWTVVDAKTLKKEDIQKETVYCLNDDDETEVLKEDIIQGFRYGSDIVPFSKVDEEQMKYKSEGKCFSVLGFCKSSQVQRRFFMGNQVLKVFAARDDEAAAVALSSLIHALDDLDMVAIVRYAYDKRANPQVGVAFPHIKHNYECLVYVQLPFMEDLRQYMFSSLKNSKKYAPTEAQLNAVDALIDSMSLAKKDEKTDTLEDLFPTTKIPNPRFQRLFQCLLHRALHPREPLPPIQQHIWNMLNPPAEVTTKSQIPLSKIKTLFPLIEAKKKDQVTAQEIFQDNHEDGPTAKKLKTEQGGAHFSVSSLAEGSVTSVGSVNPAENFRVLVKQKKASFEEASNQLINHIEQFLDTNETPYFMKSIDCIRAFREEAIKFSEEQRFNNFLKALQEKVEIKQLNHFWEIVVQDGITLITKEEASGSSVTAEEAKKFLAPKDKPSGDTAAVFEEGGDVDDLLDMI
For assay [4], the target named is T1, Elongation factor 1-alpha 1 (EEF1A1) (Homo sapiens, UniProt P68104).
T1 sequence (P68104 1-462): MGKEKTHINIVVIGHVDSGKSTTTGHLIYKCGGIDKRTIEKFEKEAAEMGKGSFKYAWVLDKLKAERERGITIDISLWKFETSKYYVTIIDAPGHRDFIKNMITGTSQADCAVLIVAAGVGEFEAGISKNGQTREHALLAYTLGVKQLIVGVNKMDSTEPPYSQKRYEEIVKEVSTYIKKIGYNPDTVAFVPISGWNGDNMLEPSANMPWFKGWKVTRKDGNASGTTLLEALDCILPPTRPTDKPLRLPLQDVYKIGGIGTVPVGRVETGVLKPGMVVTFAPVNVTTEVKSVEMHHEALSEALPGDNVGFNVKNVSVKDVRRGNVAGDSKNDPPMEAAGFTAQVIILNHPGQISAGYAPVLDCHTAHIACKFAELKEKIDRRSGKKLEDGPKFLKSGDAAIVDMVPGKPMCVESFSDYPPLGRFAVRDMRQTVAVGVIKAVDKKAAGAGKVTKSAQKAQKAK
Nature of the assay: SIM-PAL conjugated peptide PSM count, elongation factor 1-alpha 1. As to conditions: aggregate across Jurkat and K562 cells.

The target in the next assay is T2, COX-2 (Homo sapiens, UniProt P35354).
T2 sequence (P35354 18-604): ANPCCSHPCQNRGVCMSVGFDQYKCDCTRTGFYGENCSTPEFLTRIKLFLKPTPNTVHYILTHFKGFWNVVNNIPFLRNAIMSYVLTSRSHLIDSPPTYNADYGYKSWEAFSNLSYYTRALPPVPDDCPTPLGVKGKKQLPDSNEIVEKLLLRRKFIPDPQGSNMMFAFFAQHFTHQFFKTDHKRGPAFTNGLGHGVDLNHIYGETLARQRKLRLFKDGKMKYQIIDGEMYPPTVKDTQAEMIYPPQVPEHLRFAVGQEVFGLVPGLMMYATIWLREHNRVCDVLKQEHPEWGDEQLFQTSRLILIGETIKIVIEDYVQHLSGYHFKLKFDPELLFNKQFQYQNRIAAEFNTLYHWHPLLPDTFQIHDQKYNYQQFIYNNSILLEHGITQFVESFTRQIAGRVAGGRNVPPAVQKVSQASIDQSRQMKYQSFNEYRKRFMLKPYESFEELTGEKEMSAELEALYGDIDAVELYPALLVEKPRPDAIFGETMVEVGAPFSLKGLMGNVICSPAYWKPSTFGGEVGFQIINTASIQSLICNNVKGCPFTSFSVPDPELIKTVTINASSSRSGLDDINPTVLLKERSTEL
Nature of the assay: In-vitro photolabeling of COX-2 with photo-NSAIDs and analysis by LC-MS/MS. It counts as binding. As to conditions: 10 μM. As to the method: Recombinant COX-2 (1 μg) was separately incubated with each of the photo-NSAIDs (10 μM) or the tag 7 (10 μM) for 30 minutes at 37° C., and photo-irradiated for 15 minutes at 4° C. The samples were then tagged with the cleavable biotin azide probe 10 by copper-click chemistry for 3 hours at 24° C., followed by sample digestion with trypsin for 12 hours at 37° C., and probe cleavage with 2% formic acid. The resulting peptides were analyzed by LC-MS/MS. MS data was searched in Proteome Discoverer v2.2 with SEQUEST HT or Byonic v2.1 against the recombinant COX-2.
Data analysis procedures.

Each structure is given as a SMILES string.

Chain of Cathepsin D (CTSD) (P07339 65-412): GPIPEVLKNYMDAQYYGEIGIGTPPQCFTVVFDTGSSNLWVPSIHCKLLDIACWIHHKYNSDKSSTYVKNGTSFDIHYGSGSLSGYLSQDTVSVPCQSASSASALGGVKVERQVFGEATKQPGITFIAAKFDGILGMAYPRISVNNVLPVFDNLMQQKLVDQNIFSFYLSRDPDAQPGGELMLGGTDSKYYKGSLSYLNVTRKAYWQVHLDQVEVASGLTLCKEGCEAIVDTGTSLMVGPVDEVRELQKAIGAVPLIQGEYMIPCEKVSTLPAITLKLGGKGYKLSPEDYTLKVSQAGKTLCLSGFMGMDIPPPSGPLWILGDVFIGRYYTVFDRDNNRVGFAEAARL

With `CO[C@@]12[C@H](COC(N)=O)C3=C(C(=O)C(C)=C(N)C3=O)N1C[C@@H]1N[C@@H]12` [Mitomycin], in the assay with K562 cells, the EC50 is 34.9 µM.
In the case of `C#CCCC1(CCOc2cc(C(F)(F)F)nn2-c2ccccc2)N=N1` [celecoxib analog 9, 5-(2-(3-(but-3-yn-1-yl)-3H-diazirin-3-yl)ethoxy)-1-phenyl-3-(trifluoromethyl)-1H-pyrazole], the “anti-proliferative activity (in words)” value with Jurkat cells is “attenuated anti-proliferative activity”. The “stabilization of histone H2A relative to the tag 7” value in the assay on histone H2A was 10-15 °C.
On to `C#CCCC1(CCNC(=O)Cc2c(C)n(C(=O)c3ccc(Cl)cc3)c3ccc(OC)cc23)N=N1` [photo-indomethacin (6)], for which the “Count of PSMs, AMGIMNSFVNDIFER” value in [1] stood at 1. Moreover, at Nucleophosmin (NPM1), the “Count of PSMs, MSVQPTVSLGGFEITPPVVLR” value is on record as 1. Further, the “Count of PSMs, ISGLIYEETR” value at Histone H4 (HIST1H4A) is listed as 1. Further, the “stabilization of histone H2A (in words)” value with histone H2A is recorded as “did not”. Besides, the “Count of PSMs, […]” value in assay [2] is on record as 3. Also, the “Count of PSMs, AIGAVPLIQGEYMIPCEK” value at Cathepsin D (CTSD) is recorded as 3.
Turning to `C#CCCC1(CCOC(=O)NC2CCC(=O)NC2=O)N=N1` (stereo not drawn) [photo-glutarimide 8, 2-(3-(but-3-yn-1-yl)-3H-diazirin-3-yl)ethyl (2,6-dioxopiperidin-3-yl)carbamate], the “Count of PSMs, NLEALALDLMEPEQAVDLTLPK” value in assay [3] was 2.
Take `C#CCCC1(CCOc2cc(C(F)(F)F)nn2-c2ccc(S(N)(=O)=O)cc2)N=N1` [photo-celecoxib (5), 4-(5-(2-(3-(but-3-yn-1-yl)-3H-diazirin-3-yl)ethoxy)-3-(trifluoromethyl)-1H-pyrazol-1-yl)benzenesulfonamide]: the “Count of PSMs, AMGIMNSFVNDIFER” value in assay [1] was found to be 12. Also, at Nucleophosmin (NPM1), the “Count of PSMs, MSVQPTVSLGGFEITPPVVLR” value is given as 7. Besides, the “Count of PSMs, ISGLIYEETR” value at Histone H4 (HIST1H4A) stood at 10. Moreover, the “Count of PSMs, VETGVLKPGMVVTFAPVNVTTEVK” value in [4] is listed as 7. Also, in the assay on histone H2A, the “stabilization of histone H2A (in words)” value is listed as “stabilized histone H2A”. In assay [2], the “Count of PSMs, VAPEEHPVLLTEAPLNPK” value is 14. In addition, the “Count of PSMs, AIGAVPLIQGEYMIPCEK” value on Cathepsin D (CTSD) stood at 2. At COX-2, the “PSMs of conjugated peptides on recombinant COX-2” value came to 14 and the “number of conjugated peptides observed on recombinant COX-2” value is on record as “seven”. In [3], the “Count of PSMs, NLEALALDLMEPEQAVDLTLPK” value is given as 3.
Take `C#CCCC1(CCOc2ccc3cc([C@H](C)C(=O)O)ccc3c2)N=N1` [photo-naproxen (4), (S)-2-(6-(2-(3-(but-3-yn-1-yl)-3H-diazirin-3-yl)ethoxy)naphthalen-2-yl)propanoic acid]: in [1], the “Count of PSMs, AMGIMNSFVNDIFER” value is listed as 41. The “Count of PSMs, MSVQPTVSLGGFEITPPVVLR” value at Nucleophosmin (NPM1) is recorded as 7. Also, the “Count of PSMs, ISGLIYEETR” value on Histone H4 (HIST1H4A) was found to be 2. In addition, in assay [4], the “Count of PSMs, VETGVLKPGMVVTFAPVNVTTEVK” value was 5. The “stabilization of histone H2A (in words)” value with histone H2A is “stabilized histone H2A”. For the same compound, in assay [2], the “Count of PSMs, VAPEEHPVLLTEAPLNPK” value amounted to 3. The “Count of PSMs, AIGAVPLIQGEYMIPCEK” value at Cathepsin D (CTSD) was found to be 4. Moreover, on COX-2, the “PSMs of conjugated peptides on recombinant COX-2” value is 19 and the “number of conjugated peptides observed on recombinant COX-2” value is “six”. Further, the “Count of PSMs, NLEALALDLMEPEQAVDLTLPK” value in [3] stood at 7.

Values taken from patent US11912664B2, “Determining small molecule-protein and protein-protein interactions” (President and Fellows of Harvard College, priority 2017, dated 2024).
